From PubChem BioAssay (Tox21)
Values joined by “and” are separate entries in the source; they are usually repeats but may differ in a detail not shown here. Identical values can stand only once. This list was built around the results that the source calls inconclusive (neither active nor inactive); the mix of calls is not that of the screen. For part of these data: Potencies of inconclusive entries are doubtful fits and often do not repeat. Active and inactive are the calls of the source. Unless noted, calls follow the shape of the dose curve; as a rule, active = well fitted curve in the direction sought with a large enough effect in the repeat runs; inconclusive = weak or mixed curves; inactive = no such curve, though single readings can be large; an effect the other way counts as inactive or inconclusive.

How the values were obtained:
[1] = qHTS assay to identify small molecule agonists of the sonic hedgehog signaling (Shh) pathway - cell viability counter screen (AID 1259366); also: nearly all actives have a fitted effect of over 50% in size; also: potency is read from the fitted curve at half-maximal effect
Method in brief: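 Viability measured fluorometrically (CellTiter-Fluor, 1hr, 37C) in 3T3 Gli1-Luc reporter cells after 23hr compound exposure within a 24hr incubation at 37C/5% CO2.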

[2] = qHTS assay to identify small molecule antagonists of the sonic hedgehog signaling (Shh) pathway - cell viability counter screen (AID 1259367); also: nearly all actives have a fitted effect of over 55% in size; also: potency is read from the fitted curve at half-maximal effect
Method in brief: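 Tox21 library chemicals were tested on a Gli1-Luc NIH/3T3 clone (2,000 cells/well) stimulated by conditioned medium; viability was quantified as fluorescence from CellTiter-Fluor reagent added at 23 hr.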

[3] = qHTS assay to identify small molecule agonists of the estrogen receptor beta (ER-beta) signaling pathway - cell viability counter screen (AID 1259380); also: nearly all actives have a fitted effect of over 30% in size; also: potency is read from the fitted curve at half-maximal effect
Method in brief: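 Compounds dissolved in DMSO were pin-transferred onto ER-beta-UAS-bla HEK293T cells that had settled 6 hr, and exposure ran 16 hr at 37C. Following the reporter read, CellTiter-Glo luminescence after 30 min at room temperature indicated cytotoxicity.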

[4] = qHTS assay to identify small molecule antagonists of the estrogen receptor beta (ER-beta) signaling pathway - cell viability counter screen (AID 1259382); also: potency is read from the fitted curve at half-maximal effect; nearly all actives have a fitted effect of over 55% in size
Method in brief: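 CellTiter-Glo ATP luminescence measured after the LiveBLAzer read in the same wells; ER-beta-UAS-bla HEK293T cells, 16 hr compound treatment with 1nM 17-beta-estradiol agonist at 37C, 5% CO2.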

[5] = qHTS assay to identify small molecule antagonists of the sonic hedgehog signaling (Shh) pathway (AID 1259369; calls by dose curve; also: nearly all actives have a fitted effect of over 45% in size; also: potency is read from the fitted curve at half-maximal effect)
Method in brief: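 Read-out is luminescence from a firefly luciferase gene controlled by the Gli1 response element, in 3T3Gli1-Luc cells pre-incubated 4hr then exposed to compounds and conditioned medium for 24hr.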

[6] = biological target: Estrogen receptor beta (Homo sapiens) (UniProt Q92731); assay: qHTS assay to identify small molecule agonists of the estrogen receptor beta (ER-beta) signaling pathway (AID 1259377; active = well fitted activation curve with a large enough effect in the signal ratio in the repeat runs, not every such curve was filed as active; inconclusive = weak or mixed curves, or effect the other way; the % refers to the signal ratio; also: potency is read from the fitted curve at half-maximal effect; as to activation: % is scaled to controls: 0 for no effect and ±100 for the full control effect); details: ER-beta-UAS-bla HEK293T, beta-lactamase FRET ratio, 16 h; activation: at 92.4 µM (top of the series) unless noted
Method in brief: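 A UAS-controlled beta-lactamase reporter in ER-beta-UAS-bla HEK293T cells reports receptor activation. Compounds act for 16 hr at 37C in 2% charcoal-stripped serum, and a FRET substrate is read by fluorescence after 2 hours.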

[7] = biological target: Estrogen receptor beta (Homo sapiens) (UniProt Q92731); assay: qHTS assay to identify small molecule antagonists of the estrogen receptor beta (ER-beta) signaling pathway (AID 1259378; active = well fitted inhibition curve with a large enough effect in the signal ratio in the repeat runs, not every such curve was filed as active; inconclusive = weak or mixed curves, or effect the other way; inactive = no such curve, though single readings can be large or run the other way; the % refers to the signal ratio; also: potency is read from the fitted curve at half-maximal effect; as to activity, negative = inhibition: % is scaled to controls: 0 for no effect and ±100 for the full control effect); details: ER-beta-UAS-bla HEK293T, beta-lactamase FRET ratio, 16 h; activity, negative = inhibition: at 92.4 µM (top of the series) unless noted
Method in brief: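 ER-beta-UAS-bla HEK293T cells in 2% charcoal-stripped FBS medium treated with compound plus 1nM final 17-beta-estradiol for 16 hr at 37C. Beta-lactamase reporter read by FRET substrate fluorescence after 2 hours at room temperature.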

[8] = biological target: Estrogen receptor (Homo sapiens) (UniProt P03372); assay: qHTS assay to identify small molecule agonists of the estrogen receptor alpha (ER-alpha) signaling pathway in the presence of an antagonist (AID 1259383; calls by dose curve; also: potency is read from the fitted curve at half-maximal effect; nearly all actives have a fitted effect of over 15% in size)
Method in brief: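 Luminescent ERE-luciferase reporter, VM7Luc4E2 cells (endogenous ER-alpha); 10.0nM ICI-182,780 final; 15-point compound titration; 22hr at 37C; ONE-Glo, 30min RT.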

[9] = qHTS assay to identify small molecule agonists of the androgen receptor (AR) signaling pathway in the presence of an antagonist - cell viability counter screen (AID 1259379); also: potency is read from the fitted curve at half-maximal effect; nearly all actives have a fitted effect of over 25% in size
Method in brief: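 Each compound was tested at 15 concentrations on MDA-kb2 cells in the presence of 3.0uM nilutamide. Viability was measured by CellTiter-Fluor fluorescence after a 16 hr incubation at 37C in a CO2-free atmosphere.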

[10] = biological target: Androgen receptor (Homo sapiens) (UniProt P10275); assay: qHTS assay to identify small molecule agonists of the androgen receptor (AR) signaling pathway in the presence of an antagonist (AID 1259381; calls by dose curve; also: % is scaled to controls: 0 for no effect and ±100 for the full control effect; nearly all actives have a fitted effect of over 15% in size); details: MDA-kb2 MMTV-luciferase, AR agonist + nilutamide, 16 h; activation: at 42.5 µM (top of the series)
Method in brief: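 Plated MDA-kb2 cells (3,000/well) were pre-incubated 5hr, given nilutamide (3.0uM final) or buffer, then dosed with compounds in DMSO at 15 concentrations. Luciferase activity was quantified by luminescence after 16hr at 37C.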

[11] = qHTS assay to identify small molecule agonists of the sonic hedgehog signaling (Shh) pathway (AID 1259368; calls by dose curve; also: potency is read from the fitted curve at half-maximal effect; nearly all actives have a fitted effect of over 15% in size)
Method in brief: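 Following a 24 hr incubation with DMSO-dissolved compounds at 37 C, 5% CO2, Gli1-Luc NIH/3T3-derived cells received luciferase reagent for 30 min at room temperature prior to luminescence measurement.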
Tags tell the direction and shape of the fitted curve or compound fluorescence and quenching.

Chain of UniProt Q92731 (Q92731 whole entry, looked up): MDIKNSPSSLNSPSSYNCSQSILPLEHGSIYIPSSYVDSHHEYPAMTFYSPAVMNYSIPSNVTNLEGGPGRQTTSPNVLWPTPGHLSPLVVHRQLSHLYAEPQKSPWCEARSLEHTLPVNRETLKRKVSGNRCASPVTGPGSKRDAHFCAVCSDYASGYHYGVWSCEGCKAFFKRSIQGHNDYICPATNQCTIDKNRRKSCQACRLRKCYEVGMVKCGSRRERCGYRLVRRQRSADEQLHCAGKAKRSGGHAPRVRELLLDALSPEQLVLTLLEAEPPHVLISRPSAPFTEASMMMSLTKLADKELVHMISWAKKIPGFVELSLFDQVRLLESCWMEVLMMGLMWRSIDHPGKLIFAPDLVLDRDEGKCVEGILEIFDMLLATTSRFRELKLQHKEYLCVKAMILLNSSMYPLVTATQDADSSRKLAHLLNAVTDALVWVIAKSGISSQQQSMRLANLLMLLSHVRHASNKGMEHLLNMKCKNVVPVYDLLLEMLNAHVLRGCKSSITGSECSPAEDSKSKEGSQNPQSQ
Chain of UniProt P10275 (P10275 whole entry, looked up): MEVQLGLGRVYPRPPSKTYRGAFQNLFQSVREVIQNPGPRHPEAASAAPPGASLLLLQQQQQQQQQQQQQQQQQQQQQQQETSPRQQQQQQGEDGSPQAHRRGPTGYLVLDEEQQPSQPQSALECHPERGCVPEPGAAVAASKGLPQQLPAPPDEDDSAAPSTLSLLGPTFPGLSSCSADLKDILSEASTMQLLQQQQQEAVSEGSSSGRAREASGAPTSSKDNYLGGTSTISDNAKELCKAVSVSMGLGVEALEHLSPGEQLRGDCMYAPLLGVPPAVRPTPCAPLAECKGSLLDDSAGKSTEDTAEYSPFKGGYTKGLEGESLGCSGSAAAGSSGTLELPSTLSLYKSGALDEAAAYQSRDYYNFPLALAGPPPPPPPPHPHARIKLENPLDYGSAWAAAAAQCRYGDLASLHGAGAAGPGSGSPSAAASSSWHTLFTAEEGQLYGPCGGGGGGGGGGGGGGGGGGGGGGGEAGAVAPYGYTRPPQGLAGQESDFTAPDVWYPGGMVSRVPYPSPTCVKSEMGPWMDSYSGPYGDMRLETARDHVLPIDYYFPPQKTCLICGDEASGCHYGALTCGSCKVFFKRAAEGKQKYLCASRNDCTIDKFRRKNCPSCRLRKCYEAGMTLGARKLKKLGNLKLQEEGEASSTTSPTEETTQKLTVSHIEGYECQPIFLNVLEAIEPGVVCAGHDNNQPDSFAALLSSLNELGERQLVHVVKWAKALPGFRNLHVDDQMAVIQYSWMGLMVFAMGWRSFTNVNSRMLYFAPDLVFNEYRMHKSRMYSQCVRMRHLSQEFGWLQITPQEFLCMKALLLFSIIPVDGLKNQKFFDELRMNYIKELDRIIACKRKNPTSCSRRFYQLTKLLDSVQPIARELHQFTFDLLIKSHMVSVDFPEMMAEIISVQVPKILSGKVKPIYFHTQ
Chain of UniProt P03372 (P03372 whole entry, looked up): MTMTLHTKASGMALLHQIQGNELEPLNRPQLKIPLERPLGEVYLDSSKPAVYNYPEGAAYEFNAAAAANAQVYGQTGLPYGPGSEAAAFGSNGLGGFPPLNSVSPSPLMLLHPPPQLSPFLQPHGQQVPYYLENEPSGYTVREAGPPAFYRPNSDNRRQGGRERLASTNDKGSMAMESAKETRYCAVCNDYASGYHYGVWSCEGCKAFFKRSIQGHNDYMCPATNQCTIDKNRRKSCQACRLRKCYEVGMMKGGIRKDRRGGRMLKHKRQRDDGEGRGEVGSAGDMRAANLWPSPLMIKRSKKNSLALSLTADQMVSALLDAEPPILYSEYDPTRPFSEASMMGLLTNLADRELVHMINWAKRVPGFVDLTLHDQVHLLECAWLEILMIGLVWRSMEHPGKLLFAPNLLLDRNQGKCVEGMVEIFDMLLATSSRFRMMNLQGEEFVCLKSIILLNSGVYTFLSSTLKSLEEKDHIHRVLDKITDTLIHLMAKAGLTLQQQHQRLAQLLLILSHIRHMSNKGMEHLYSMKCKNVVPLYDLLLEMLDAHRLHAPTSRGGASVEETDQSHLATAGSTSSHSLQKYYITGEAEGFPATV

SMILES: C[C@H](CCC(=O)O)[C@H]1CC[C@H]2[C@@H]3CC[C@@H]4C[C@H](O)CC[C@]4(C)[C@H]3CC[C@]12C
- Potency [1]: inconclusive: 68.3 µM [cytotoxic, single point]
- Potency [2]: inconclusive: 54.3 µM [cytotoxic, single point]
- Potency [3]: active: 48.4 µM and active: 48.6 µM
- Potency [4]: inconclusive: 30.6 µM [cytotoxic, partial curve]

SMILES: O=C(O)c1cccc(N(Cc2cccnc2)c2ccc(OC(F)F)c(OC(F)F)c2)c1
- Potency [1]: inactive
- Potency [5]: active: 0.969 µM
- Potency [6]: inconclusive: 19.3 µM [rising, full curve]
- Potency [7]: inconclusive: 12.2 µM [rising, full curve]

SMILES: O=C(O)CCN(C1(C(=O)NO)CCCC1)S(=O)(=O)c1ccc(Oc2ccc(F)cc2)cc1
- Potency [1]: inconclusive: 109 µM [rising, single point]
- Potency [3]: inactive

SMILES: Oc1cccc(Nc2ccccc2)c1
- Potency [1]: inconclusive: 28.5 µM [cytotoxic, partial curve]
- Potency [6]: inconclusive: 45.1 µM [activator, partial curve]
- Potency [8]: inconclusive: 71.5 µM [activator, partial curve, poor fit]

SMILES: O=C(c1ccccc1)c1cc(Cl)ccc1O
- Potency [1]: inactive
- activation [6]: inconclusive: 3.53%
- Potency [7]: inconclusive: 58 µM [inhibitor, single point]
- Potency [3]: inconclusive: 65.1 µM [cytotoxic, single point]
- Potency [4]: inconclusive: 73.1 µM [cytotoxic, single point]

SMILES: C[C@@H]1C[C@H]2[C@@H]3CCC4=CC(=O)C=C[C@]4(C)[C@@]3(Cl)[C@@H](O)C[C@]2(C)[C@@]1(OC(=O)c1ccco1)C(=O)CCl
- Potency [1]: inconclusive: 23.7 µM [cytotoxic, partial curve]
- Potency [2]: inconclusive: 18.8 µM [cytotoxic, partial curve]
- Potency [5]: inconclusive: 18.8 µM [inhibitor, partial curve]
- Potency [9]: inconclusive: 26.6 µM [cytotoxic, partial curve]
- activation [10]: inconclusive: 193%
- Potency [4]: inconclusive: 7.5 µM [cytotoxic, full curve]

SMILES: CN1C[C@H]2c3ccccc3Oc3ccc(Cl)cc3[C@@H]2C1
- Potency [1]: inconclusive: 33.5 µM [cytotoxic, partial curve, poor fit]
- Potency [2]: inconclusive: 26.6 µM [cytotoxic, partial curve]
- Potency [5]: inconclusive: 33.5 µM [inhibitor, single point]
- Potency [3]: inconclusive: 33.5 µM [cytotoxic, single point]

SMILES: NS(=O)(=O)c1cc(C(=O)NN2C[C@H]3[C@H]4CCC(C4)[C@H]3C2)ccc1Cl
- Potency [1]: inconclusive: 15 µM [cytotoxic, partial curve]
- Potency [6]: inactive
- Potency [3]: inactive

SMILES: COc1ccc(/C=C/c2cc(OC)cc(=O)o2)cc1
- Potency [1]: inconclusive: 31.4 µM [cytotoxic, single point]
- Potency [11]: inconclusive: 9.92 µM [activator, partial curve, poor fit]
- Potency [7]: inactive

SMILES: CN(C)CCN1CCN(c2cccc(Cl)c2)C1=O
- Potency [1]: inactive
- Potency [3]: inactive

SMILES: CCCc1c(OCCCCc2nn[nH]n2)ccc(C(C)=O)c1O
- Potency [1]: inconclusive: 68.6 µM
- Potency [5]: inactive
- Potency [4]: inconclusive: 30.6 µM [cytotoxic]

SMILES: CN(C)CCOC(c1ccccc1)c1ccc(Br)cc1 (stereo unspecified)
- Potency [1]: inconclusive: 23.7 µM [cytotoxic, partial curve, poor fit]
- Potency [6]: inconclusive: 23.7 µM [rising, partial curve, poor fit]
- activity, negative = inhibition [7]: inconclusive: -31.1% [at 42.5 µM]
- Potency [4]: inconclusive: 16.8 µM [cytotoxic, partial curve]

SMILES: CO/N=C1\CN(c2nc3c(cc2F)c(=O)c(C(=O)O)cn3C2CC2)CC1CN (stereo unspecified)
- Potency [1]: inconclusive: 29.8 µM [cytotoxic, partial curve, poor fit]
- Potency [2]: inactive
- Potency [6]: inactive
- activity, negative = inhibition [7]: inconclusive: 12% [at 42.5 µM]
- Potency [3]: inconclusive: 33.5 µM [cytotoxic, single point]

SMILES: CC(C)(O)c1coc(S(=O)(=O)NC(=O)Nc2c3c(cc4c2CCC4)CCC3)c1
- Potency [2]: inconclusive: 68.6 µM [cytotoxic, single point]

SMILES: O=C(O)c1cc2ccccc2cc1O
- Potency [1]: inconclusive: 7.64 µM [rising, partial curve]
- Potency [5]: inconclusive: 5.41 µM [inhibitor, full curve]
